Inconclusive results and toxic doses are left out. Not every entry of the source has a single result; some have several. The other results are left out here. The source may hold further records. The records of an entry repeat one measurement across runs, samples, wells, individuals or studies.

The test system of the assay is Lymphosarcoma Mecca ip in C3AKF1 mice, survival T/C%. The experiment in a line: NCI In Vivo Anticancer Drug Screen. Data for tumor model Lymphosarcoma Mecca (intraperitoneal) in C3AKF1 (CHKRF1) mice. To be noted: endpoint: survival time, mean or median, schedule: Q01DX010 (ip), higher = longer survival. The method, then:
The antitumor activity of compounds was measured in mice bearing transplantable tumors. Survival or tumor size were measured and the results are expressed as the measurement made in the treated group (T) divided by the measurement made in the vehicle treated control group (C). The tumor model used in this assay is Lymphosarcoma Mecca (intraperitoneal) in C3AKF1 (CHKRF1) mice

In the case of `Nc1nc(N)c2nc(CNc3ccc(C(=O)NC(CCC(=O)O)C(=O)O)cc3)cnc2n1` (stereo unspecified), the T/C (dose: 0.05 mg/kg/injection, vehicle: other) was 124 % of control and 165 % of control.
For the molecule `CC(=O)NC1=C(N2CC2)C(=O)C(NC(C)=O)=C(N2CC2)C1=O`, the T/C (dose: 0.25 mg/kg/injection, vehicle: saline) was 122 % of control and 166 % of control.
For the molecule `NC(=O)N(CCCl)N=O`, for the setting “dose: 2.0 mg/kg/injection, vehicle: saline”, the T/C is 113 % of control and 170 % of control.
For `O=C(O)c1[nH]c(=O)[nH]c(=O)c1F`, the T/C is, setting by setting: (dose: 5.0 mg/kg/injection, vehicle: saline) 94 % of control and 150 % of control; (dose: 10.0 mg/kg/injection, vehicle: saline) 94 % of control and 150 % of control.
For `CCOC(=O)NP(=O)(N1CC1)N1CC1`, under “dose: 20.0 mg/kg/injection, vehicle: saline”, the T/C was 111 % of control and 155 % of control.

The values are drawn from PubChem BioAssay AID304 (DTP/NCI, 2004).
